# In publication PMC9911399, “Two distinct binding modes provide the RNA-binding protein RbFox with extraordinary sequence specificity”:
# Numbering of substitutions follows the chain as printed; changes in the protein carry UniProt numbers. This is one part of the list.
# B1: ACUUCAA (DNA:RNA)
# RNA: GGGAGACCGGAAUUCAGAUUGUCCACUUCAAUUAAAUCCCGUCGUAGCCACCA
# DNA 1: CAATCTGAATTCCGGTCTCCC
# DNA 2: TGGTGGCTACGACGGGATT
# B2: GACGGGC (DNA:RNA)
# RNA: GGGAGACCGGAAUUCAGAUUGUCCGACGGGCUUAAAUCCCGUCGUAGCCACCA
# DNA 1: CAATCTGAATTCCGGTCTCCC
# DNA 2: TGGTGGCTACGACGGGATT
# B3: GUCUUCA (DNA:RNA)
# RNA: B1 RNA with A25G, C26U, U27C, C29U, A30C
# DNA 1: CAATCTGAATTCCGGTCTCCC
# DNA 2: TGGTGGCTACGACGGGATT
# B4: UUCGAUC (DNA:RNA)
# RNA: B2 RNA with G25U, A26U, G29A, G30U
# DNA 1: CAATCTGAATTCCGGTCTCCC
# DNA 2: TGGTGGCTACGACGGGATT
# B5: CUAGACU (DNA:RNA)
# RNA: B2 RNA with G25C, A26U, C27A, G29A, G30C, C31U
# DNA 1: CAATCTGAATTCCGGTCTCCC
# DNA 2: TGGTGGCTACGACGGGATT
# B6: AAUGCGC (DNA:RNA)
# RNA: B2 RNA with G25A, C27U, G29C
# DNA 1: CAATCTGAATTCCGGTCTCCC
# DNA 2: TGGTGGCTACGACGGGATT
# B7: AACUCAG (DNA:RNA)
# RNA: B1 RNA with C26A, U27C, A31G
# DNA 1: CAATCTGAATTCCGGTCTCCC
# DNA 2: TGGTGGCTACGACGGGATT
# B8: AGUCAUU (DNA:RNA)
# RNA: B1 RNA with C26G, U28C, C29A, A30U, A31U
# DNA 1: CAATCTGAATTCCGGTCTCCC
# DNA 2: TGGTGGCTACGACGGGATT
# B9: ACGGGUC (DNA:RNA)
# RNA: B2 RNA with G25A, A26C, C27G, G30U
# DNA 1: CAATCTGAATTCCGGTCTCCC
# DNA 2: TGGTGGCTACGACGGGATT
# B10: CCGCUUU (DNA:RNA)
# RNA: B1 RNA with A25C, U27G, U28C, C29U, A30U, A31U
# DNA 1: CAATCTGAATTCCGGTCTCCC
# DNA 2: TGGTGGCTACGACGGGATT
# B11: CCGACUC (DNA:RNA)
# RNA: B1 RNA with A25C, U27G, U28A, A30U, A31C
# DNA 1: CAATCTGAATTCCGGTCTCCC
# DNA 2: TGGTGGCTACGACGGGATT
# B12: UCACCCG (DNA:RNA)
# RNA: B1 RNA with A25U, U27A, U28C, A30C, A31G
# DNA 1: CAATCTGAATTCCGGTCTCCC
# DNA 2: TGGTGGCTACGACGGGATT
# B13: GGAGCCC (DNA:RNA)
# RNA: B2 RNA with A26G, C27A, G29C, G30C
# DNA 1: CAATCTGAATTCCGGTCTCCC
# DNA 2: TGGTGGCTACGACGGGATT
# B14: UCACCAG (DNA:RNA)
# RNA: B1 RNA with A25U, U27A, U28C, A31G
# DNA 1: CAATCTGAATTCCGGTCTCCC
# DNA 2: TGGTGGCTACGACGGGATT
# B15: AGAAAAA (DNA:RNA)
# RNA: B1 RNA with C26G, U27A, U28A, C29A
# DNA 1: CAATCTGAATTCCGGTCTCCC
# DNA 2: TGGTGGCTACGACGGGATT
# B16: AUUGCGC (DNA:RNA)
# RNA: B1 RNA with C26U, U28G, A30G, A31C
# DNA 1: CAATCTGAATTCCGGTCTCCC
# DNA 2: TGGTGGCTACGACGGGATT
# B17: GUAUCUG (DNA:RNA)
# RNA: B1 RNA with A25G, C26U, U27A, A30U, A31G
# DNA 1: CAATCTGAATTCCGGTCTCCC
# DNA 2: TGGTGGCTACGACGGGATT
# B18: CAGACUU (DNA:RNA)
# RNA: B1 RNA with A25C, C26A, U27G, U28A, A30U, A31U
# DNA 1: CAATCTGAATTCCGGTCTCCC
# DNA 2: TGGTGGCTACGACGGGATT
# B19: GAUAUAA (DNA:RNA)
# RNA: B1 RNA with A25G, C26A, U28A, C29U
# DNA 1: CAATCTGAATTCCGGTCTCCC
# DNA 2: TGGTGGCTACGACGGGATT
# B20: GGAAGAA (DNA:RNA)
# RNA: B1 RNA with A25G, C26G, U27A, U28A, C29G
# DNA 1: CAATCTGAATTCCGGTCTCCC
# DNA 2: TGGTGGCTACGACGGGATT
# Biological target: T1, RBFOX1 RRM (Homo sapiens, UniProt Q9NWB1 109-208)
# T1 sequence: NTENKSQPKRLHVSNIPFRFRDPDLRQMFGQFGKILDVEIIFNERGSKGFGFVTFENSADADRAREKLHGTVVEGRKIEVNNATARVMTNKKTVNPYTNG
# Assay: EMSA; HiTS-Eq, 1 nM pool, 10 min; buffer printed only for the single-RNA assays: 10 mM Tris pH 7.5, 150 mM NaCl, 3.4 mM EDTA, 0.001% NP-40, 30 C
# Conditions: tags: His6 N-terminal (pET28a); label: 5' 32P
# Summary of the method: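 Purified RbFox RRM, wild type or mutant, was incubated for 10 min in 50 µL with 1 nM of a 5′-radiolabelled RNA pool carrying 7 randomized nucleotides, whose flanks were annealed to DNA oligonucleotides, over a series of increasing protein concentrations. Unbound RNA was resolved on 8% native PAGE, cut out, reverse-transcribed, barcoded by PCR and sequenced on an Illumina HiSeq 2500. Relative association constants were derived from changes in read counts for each RNA species versus the control reaction and normalised to the cognate motif.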
row,Binder,binding signal
1,B1,0.000968 KA relative to UGCAUGU
2,B2,0.0152 KA relative to UGCAUGU
3,B3,0.0081 KA relative to UGCAUGU
4,B4,0.0116 KA relative to UGCAUGU
5,B5,0.00641 KA relative to UGCAUGU
6,B6,0.0106 KA relative to UGCAUGU
7,B7,0.0069 KA relative to UGCAUGU
8,B8,0.00583 KA relative to UGCAUGU
9,B9,0.0159 KA relative to UGCAUGU
10,B10,0.00999 KA relative to UGCAUGU
11,B11,0.00787 KA relative to UGCAUGU
12,B12,0.0029 KA relative to UGCAUGU
13,B13,0.0103 KA relative to UGCAUGU
14,B14,0.00424 KA relative to UGCAUGU
15,B15,0.00128 KA relative to UGCAUGU
16,B16,0.0173 KA relative to UGCAUGU
17,B17,0.015 KA relative to UGCAUGU
18,B18,0.00413 KA relative to UGCAUGU
19,B19,0.00469 KA relative to UGCAUGU
20,B20,0.0149 KA relative to UGCAUGU
